Assay results from PubChem BioAssay (NCATS).
Several values for one entry are separate records, joined by “and”; a condition that tells them apart may be missing. Equal values may be shown once. The inconclusive results got no clear call from the source; some entries with a clear call stand among them for comparison. Where the call is inconclusive, the potency comes from a doubtful curve fit. Activity calls are given as the source filed them. Calls come from the whole dose curve; as a rule, active = well fitted activation curve with a large enough effect in the main read-out, with a control signal flat (not every such curve was filed as active); inconclusive = small, poorly fitted or top-dose-only effect, or effect the other way, or a change in a side signal; inactive = flat fitted curve, though single readings scatter.
Potency is the fitted concentration of half-maximal effect; tags give direction and shape of the fitted curve.

The compounds below were run against 3',5'-cyclic-AMP phosphodiesterase 4B (Homo sapiens) (UniProt Q07343) (assay: qHTS Assay for Inhibitors of PDE-IV (AID 607; for activation (PDE inhibition): % of control where 0% means no effect)). Settings: HEK293 ACTOne CNG channel cells, membrane potential fluorescence; series mostly up to 22.9 µM; activation (PDE inhibition): at the top concentration.
Sequence of UniProt Q07343 (Q07343 whole entry, looked up): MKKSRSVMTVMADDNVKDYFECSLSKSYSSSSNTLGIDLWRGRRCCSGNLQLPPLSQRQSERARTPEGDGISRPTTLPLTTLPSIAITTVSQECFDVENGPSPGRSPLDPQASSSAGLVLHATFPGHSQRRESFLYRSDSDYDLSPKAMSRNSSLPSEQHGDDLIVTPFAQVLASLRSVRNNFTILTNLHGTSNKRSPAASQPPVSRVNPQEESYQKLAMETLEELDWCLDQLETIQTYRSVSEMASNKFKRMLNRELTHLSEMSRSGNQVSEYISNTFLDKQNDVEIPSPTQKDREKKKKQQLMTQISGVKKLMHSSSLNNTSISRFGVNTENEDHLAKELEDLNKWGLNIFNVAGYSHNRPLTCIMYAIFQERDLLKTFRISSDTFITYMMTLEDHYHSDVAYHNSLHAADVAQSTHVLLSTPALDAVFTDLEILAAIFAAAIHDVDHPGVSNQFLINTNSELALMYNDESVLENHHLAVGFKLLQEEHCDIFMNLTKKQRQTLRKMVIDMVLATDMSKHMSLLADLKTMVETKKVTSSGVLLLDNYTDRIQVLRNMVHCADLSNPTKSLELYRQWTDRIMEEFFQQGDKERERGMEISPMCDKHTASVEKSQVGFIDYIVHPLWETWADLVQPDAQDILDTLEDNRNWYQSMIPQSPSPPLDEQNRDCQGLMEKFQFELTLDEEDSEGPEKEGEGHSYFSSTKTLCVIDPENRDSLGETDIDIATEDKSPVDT
Summary of the method: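 Cell-based read-out of cAMP via a modified cyclic nucleotide-gated channel and membrane potential dye (535/590 nm) in HEK293 cells expressing PDE4 endogenously. Compounds tested up to 22.9 uM final; 100 uM RO 20-1724 reference.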
With `C[C@](N)(Cc1ccc(O)c(O)c1)C(=O)O` the Potency was inconclusive: 19 µM [inhibitor, single point].
`Cc1ccc(O)c(N=Nc2ccccc2)n1` was tested, and the Potency was “inactive”.
`CC(=O)SCC[N+](C)(C)C` was tested, and the “activation (PDE inhibition)” value was inactive: -7.75%.
In the case of `Nc1ccc(O)c(C(=O)O)c1`, the “activation (PDE inhibition)” value is reported as inactive: 8.08%.
In the case of `CC(C)[C@H](CO)Nc1nc(Nc2ccc(C(=O)O)c(Cl)c2)c2ncn(C(C)C)c2n1`, the Potency is reported as inconclusive: 15.1 µM [inhibitor, single point].
With `O=C(CCCN1CCC(O)(c2ccc(Cl)cc2)CC1)c1ccc(F)cc1` the Potency was “inactive and inconclusive: 19 µM [activator, partial curve] and inconclusive: 9.51 µM [activator, partial curve]”.
In the case of `Nc1nc2ccc(OC(F)(F)F)cc2s1`, the Potency is reported as inconclusive: 9.51 µM [activator, partial curve].
With `COc1ccc(-c2coc3cc(O)ccc3c2=O)cc1` the Potency was inconclusive: 15.1 µM [inhibitor, single point].
`COc1ccc(Cl)cc1C(=O)NCCc1ccc(S(=O)(=O)NC(=O)NC2CCCCC2)cc1` was tested, and the Potency was inconclusive: 15.1 µM [inhibitor, single point].
With `COc1cccc(-c2cc(=O)c3ccccc3o2)c1N` the Potency was “inactive and inconclusive: 19 µM [activator, single point]”.
For `O=C1C(SCCO)=C(SCCO)C(=O)c2ccccc21`, the Potency was inconclusive: 3.01 µM [falling, full curve].
`CCc1cccc(N(C)C(N)=Nc2cccc3ccccc23)c1` was tested, and the “activation (PDE inhibition)” value was inactive: 10.3%.
